This is an account of results in paper doi:10.1101/2020.05.04.076190 (bioRxiv, 2020).

This data set deals with the molecule itself. Kind of data set: native gel or EMSA.

B1: Max bHLH-LZ peptide (p21 isoform) (domain or fragment)
chain: not shown
Turning to B1, the binding result is on record as “binds”.
